Test results reported in paper PMC6367348.
These are yes or no findings as the source states them, for the method shown. In cells and extracts the contact can be indirect. Some binding calls cover weakened binding; strength is not graded here. Tags and fused reporters may be left off the sequences shown.

Sequences of proteins named here, by UniProt entry; tags and fusion partners are left off.
UniProt Q13131: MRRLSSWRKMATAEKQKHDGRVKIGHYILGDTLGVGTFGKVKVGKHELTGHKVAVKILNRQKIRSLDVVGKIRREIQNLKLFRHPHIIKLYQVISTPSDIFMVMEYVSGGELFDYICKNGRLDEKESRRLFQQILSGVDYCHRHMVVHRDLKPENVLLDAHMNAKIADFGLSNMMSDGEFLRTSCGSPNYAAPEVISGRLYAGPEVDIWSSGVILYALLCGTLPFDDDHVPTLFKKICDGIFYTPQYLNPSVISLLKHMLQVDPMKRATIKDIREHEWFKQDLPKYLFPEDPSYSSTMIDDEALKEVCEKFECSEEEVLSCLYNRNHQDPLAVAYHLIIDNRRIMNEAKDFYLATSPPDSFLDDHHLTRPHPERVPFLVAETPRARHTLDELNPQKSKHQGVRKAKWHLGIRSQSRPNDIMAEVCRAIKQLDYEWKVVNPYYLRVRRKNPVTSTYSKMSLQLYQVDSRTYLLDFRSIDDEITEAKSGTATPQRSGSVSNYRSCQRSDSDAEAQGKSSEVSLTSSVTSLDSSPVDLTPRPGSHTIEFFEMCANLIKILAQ
UniProt Q9UKV5: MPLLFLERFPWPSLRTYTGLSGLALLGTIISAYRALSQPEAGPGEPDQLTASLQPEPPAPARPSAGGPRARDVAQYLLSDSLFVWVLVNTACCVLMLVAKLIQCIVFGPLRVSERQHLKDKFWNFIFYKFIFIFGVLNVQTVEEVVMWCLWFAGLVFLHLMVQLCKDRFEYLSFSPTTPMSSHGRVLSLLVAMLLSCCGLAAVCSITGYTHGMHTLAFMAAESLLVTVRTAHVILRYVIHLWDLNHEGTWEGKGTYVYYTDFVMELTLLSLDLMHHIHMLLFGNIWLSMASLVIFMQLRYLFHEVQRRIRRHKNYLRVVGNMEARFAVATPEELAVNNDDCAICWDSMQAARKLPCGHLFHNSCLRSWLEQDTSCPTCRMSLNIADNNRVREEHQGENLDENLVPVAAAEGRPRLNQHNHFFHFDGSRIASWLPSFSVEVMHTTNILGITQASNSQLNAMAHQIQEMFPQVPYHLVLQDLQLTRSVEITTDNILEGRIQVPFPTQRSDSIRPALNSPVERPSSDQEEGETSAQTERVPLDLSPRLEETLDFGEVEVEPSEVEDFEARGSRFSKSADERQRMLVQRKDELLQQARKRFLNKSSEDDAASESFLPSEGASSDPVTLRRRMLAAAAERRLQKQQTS

T1: FLAG-tagged Insig-1 (human) (UniProt O15503)
T1 sequence: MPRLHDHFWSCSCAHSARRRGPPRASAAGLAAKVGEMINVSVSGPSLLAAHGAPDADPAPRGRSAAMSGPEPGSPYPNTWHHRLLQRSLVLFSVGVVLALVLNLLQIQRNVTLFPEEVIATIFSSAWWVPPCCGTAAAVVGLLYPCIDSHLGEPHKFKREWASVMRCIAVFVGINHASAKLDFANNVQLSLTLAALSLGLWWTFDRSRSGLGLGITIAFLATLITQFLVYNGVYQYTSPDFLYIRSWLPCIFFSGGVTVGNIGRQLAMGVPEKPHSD

T2: FLAG-tagged human Insig-2 (human) (UniProt Q9Y5U4)
T2 sequence: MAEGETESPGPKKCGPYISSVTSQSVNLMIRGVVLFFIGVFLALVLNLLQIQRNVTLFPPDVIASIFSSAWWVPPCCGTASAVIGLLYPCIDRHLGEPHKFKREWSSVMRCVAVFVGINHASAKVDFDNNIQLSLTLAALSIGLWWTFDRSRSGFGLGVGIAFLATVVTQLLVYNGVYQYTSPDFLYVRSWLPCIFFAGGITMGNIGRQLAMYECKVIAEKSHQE


Legend:
[1] = molecular target: T1, FLAG-tagged Insig-1 (human); assay: condition: only cells treated with 100 μM A769662 for 8 h; co-IP; As a1, but cells treated with 100 μM A769662 (AMPK agonist) for 8 h before lysis; FLAG antibodies and protein A/G-Sepharose beads; immunoblot
[2] = molecular target: T2, FLAG-tagged human Insig-2 (human); assay: as above
[3] = molecular target: T1, FLAG-tagged Insig-1 (human); assay: co-IP; HEK293 cells co-transfected for 24 h, no A769662; lysate (50 mM Tris-HCl pH 8.0, 1% Nonidet P-40, 150 mM NaCl) incubated with FLAG antibodies and protein A/G-Sepharose beads at 4 °C overnight; immunoblot
[4] = molecular target: T2, FLAG-tagged human Insig-2 (human); assay: as above
GST-tagged AMPKα1 = GST-tagged AMPKα1 (UniProt Q13131); assay: pull-down; HEK293 cells co-transfected with myc-Insig-1 and increasing GST-AMPKα1 (48 h), or for 24 h followed with or without 100 μM A769662 for 8 h; lysates incubated with Glutathione Sepharose beads at 4 °C overnight; immunoblot with myc or GST antibodies

Row | binding [1] | binding [2] | binding [3] | binding [4] | binding (GST-tagged AMPKα1) | Molecule
1 | no binding | no binding | binds | binds | – | myc-tagged gp78 (from UniProt Q9UKV5 1-643) (enzyme)
2 | – | – | – | – | binds | myc-tagged Insig-1 (protein, UniProt O15503 1-277) MPRLHDHFWSCSCAHSARRRGPPRASAAGLAAKVGEMINVSVSGPSLLAAHGAPDADPAPRGRSAAMSGPEPGSPYPNTWHHRLLQRSLVLFSVGVVLALVLNLLQIQRNVTLFPEEVIATIFSSAWWVPPCCGTAAAVVGLLYPCIDSHLGEPHKFKREWASVMRCIAVFVGINHASAKLDFANNVQLSLTLAALSLGLWWTFDRSRSGLGLGITIAFLATLITQFLVYNGVYQYTSPDFLYIRSWLPCIFFSGGVTVGNIGRQLAMGVPEKPHSD
